# Reference: PMC4336329 (PLoS ONE, 2015)
# The whole screen tested about 310,000 compounds, of which about 14,000 (4.5%) showed an effect of 50% or more. The effect is printed as a negative number. The list shows a part of the results.
# Target: human ether-à-go-go-related gene (hERG) potassium channel (human, UniProt Q12809)
# Assay: primary screen, population patch clamp on CHO cells stably expressing hERG
# 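Further: peak tail current of the secondary pulse compared with the same well before compound.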
# Chain of human ether-à-go-go-related gene (hERG) potassium channel (Q12809 whole entry, looked up): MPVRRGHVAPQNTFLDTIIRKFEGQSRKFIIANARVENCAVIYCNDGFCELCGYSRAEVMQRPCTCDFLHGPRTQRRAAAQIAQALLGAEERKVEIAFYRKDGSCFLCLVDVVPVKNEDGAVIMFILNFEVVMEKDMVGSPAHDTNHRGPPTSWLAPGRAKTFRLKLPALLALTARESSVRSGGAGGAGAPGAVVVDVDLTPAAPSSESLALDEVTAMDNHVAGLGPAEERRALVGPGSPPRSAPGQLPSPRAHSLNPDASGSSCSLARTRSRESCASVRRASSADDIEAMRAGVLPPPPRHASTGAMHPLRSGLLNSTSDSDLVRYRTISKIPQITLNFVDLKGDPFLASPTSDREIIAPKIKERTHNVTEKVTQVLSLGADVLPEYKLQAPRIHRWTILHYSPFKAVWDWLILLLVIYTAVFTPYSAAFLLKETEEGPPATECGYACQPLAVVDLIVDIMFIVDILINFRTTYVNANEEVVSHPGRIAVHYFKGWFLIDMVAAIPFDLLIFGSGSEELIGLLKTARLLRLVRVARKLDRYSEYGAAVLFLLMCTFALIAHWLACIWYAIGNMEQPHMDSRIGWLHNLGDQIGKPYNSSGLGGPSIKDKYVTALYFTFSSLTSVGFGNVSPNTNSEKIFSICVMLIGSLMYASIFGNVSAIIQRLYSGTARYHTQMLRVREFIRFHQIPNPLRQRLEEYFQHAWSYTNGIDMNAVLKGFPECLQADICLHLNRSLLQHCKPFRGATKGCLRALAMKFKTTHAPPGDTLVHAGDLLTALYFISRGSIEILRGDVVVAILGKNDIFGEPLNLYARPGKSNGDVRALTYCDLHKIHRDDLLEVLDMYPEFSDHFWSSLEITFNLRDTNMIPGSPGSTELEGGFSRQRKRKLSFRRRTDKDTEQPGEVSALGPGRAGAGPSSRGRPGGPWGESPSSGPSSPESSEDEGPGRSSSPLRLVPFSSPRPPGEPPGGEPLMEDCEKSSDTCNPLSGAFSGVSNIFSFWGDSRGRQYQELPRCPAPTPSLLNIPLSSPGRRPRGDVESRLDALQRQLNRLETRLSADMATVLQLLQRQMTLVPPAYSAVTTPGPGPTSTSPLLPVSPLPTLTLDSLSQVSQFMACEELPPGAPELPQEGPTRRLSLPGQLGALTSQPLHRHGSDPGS
row,SMILES,"hERG current change (%, negative = inhibition) at 10uM"
1,COc1ccc(N=C2SC(CC(=O)Nc3ccccc3OC)C(=O)N2Cc2ccco2)cc1 (stereo not shown),11.2%
2,COc1ccc(/C=N/n2cnc3c([nH]c4ccc(Br)cc43)c2=O)cc1CN1CCOCC1,-8.88%
3,O=C(Nc1nc2c(s1)CN(Cc1ccccc1)CC2)C1CCC1,0.548%
4,N/C(=N\OC(=O)/C=C/c1ccccc1)c1ccc(Br)cc1,4.83%
5,Nc1ccccc1C(=O)NCc1ccc(F)cc1,35.8%
6,O=C(Nc1ccccc1)c1cccc(N2C(=O)CCC2=O)c1,-4.84%
7,Cc1cc(OCC(=O)Nc2cc(C(C)(C)C)on2)ccc1[N+](=O)[O-],-24.3%
8,COc1cc(CC(=O)N(C)CC(=O)Nc2ccc(Cl)c(C(F)(F)F)c2)cc(OC)c1OC,-16.2%
9,CCOC(=O)CCCSc1nnc(CCCCCN2C(=O)c3cccc4cccc(c34)C2=O)o1,-17.7%
10,NC(=S)N/N=C1\c2ccccc2-c2c(C(=O)O)cccc21,12.7%
11,COc1ccc(C(=O)COc2ccc3ccc(=O)oc3c2)c(OC)c1,8.43%
12,O=S(=O)(Nc1ccc(O)c2ccccc12)c1ccc(F)cc1,14.3%
13,C=CCN=C1CC(C)(C)CC(=O)/C1=C(\O)c1ccccc1,-6.18%
14,CCOc1ccc(-c2cc(CCCC(=O)N3CCN(c4ccc(OC)cc4)CC3)no2)cc1,10.3%
15,Cc1ccc(N)cc1NC(=O)CN1CCOCC1,13.5%
16,CC(C)C(NC(=O)/C=C/c1ccc(F)cc1)C(C)C,16.1%
17,COc1ccc(CSc2n[nH]c(C)n2)cc1Br,10.5%
18,O=C1CCC(/C=C/c2ccccc2)=NN1Cc1ccc(Cl)c(Cl)c1,-1.15%
19,CCc1ccccc1NC(=O)CN1CCN(C(=O)CNC(=O)c2ccc(N3CCCC3=O)cc2)CC1,-3.9%
20,O=C(Nc1ccccc1N1CCOCC1)C1Cc2ccccc2CN1C(=O)c1ccco1 (stereo not shown),-32.4%
21,CC(C)=CC(=O)Nc1ccc(S(=O)(=O)Nc2onc(C)c2C)cc1,27.8%
22,O=C(Nc1ccccc1Cl)NC1(C(=O)NCc2ccncc2)CCCCC1,13.7%

row,SMILES,"hERG current change (%, negative = inhibition) at 10uM"
1,CCOC(=O)c1ccc(COc2ccc(C(C)C)cc2)o1,-13.1%
2,COCCn1c(-c2ccccc2F)n[nH]c1=S,21.5%
3,COc1ccccc1CN1CC(C(=O)N(C)CCc2nc3ccc(F)cc3[nH]2)CCC1=O (stereo not shown),10.1%
4,Cn1cc(C(=O)c2ccc(F)cc2)cc1-c1nc2ccccc2n1C,-50.5%
5,CNC(=S)N1N=C(c2ccc(OC)cc2)CC1c1ccc(N(C)C)cc1 (stereo not shown),-1.59%
6,COc1ccc(CNCc2cc(C)c(OC)cc2C)c(OC)c1.O=C(O)C(=O)O,-54.9%
7,Cc1ccc(NC(Cc2cc(C)no2)c2ccccc2)cc1 (stereo not shown),-33%
8,CC1(C)OC(C)(C)/C(=C/Nc2ccccc2)C1=O,10.2%
9,COc1ccccc1N1CCN(CC(=O)N(CC(C)C)c2c(N)n(CC(C)C)c(=O)[nH]c2=O)CC1,-2.1%
10,CCOC(=O)c1c(C)[nH]c(C)c1S(=O)(=O)N1CCN(c2ccc([N+](=O)[O-])cc2)CC1,-29.6%
11,CCCCN(C)C(=O)c1nc2ccccn2c1CNC1CCC1,-18.2%
12,CCOC(=O)CCNC(=O)N1CCCC(Cc2ccccc2)(C(=O)OCC)C1 (stereo not shown),2.55%
13,O=C(Nc1ccccc1)N1CCC(C(=O)N2CCN(c3ccccc3F)CC2)CC1,-1.31%
14,O=C(O)CCC(=O)Nc1ccc(N2CCOCC2)cc1,12.6%
15,O=C(c1ccc(-c2ccccc2)cc1)c1ccccc1C(=O)N1CCOCC1,-23.7%
16,O=C(COC(=O)c1cc(-c2cccs2)nn1-c1ccccc1)Nc1cc([N+](=O)[O-])ccc1Cl,0.0191%
17,O=c1cc(N2CCc3ccccc32)[nH]c(=O)n1-c1ccccc1,9.72%
18,Cc1cc(Br)ccc1NC(=O)CNC(=O)c1ccc(-n2cncn2)c([N+](=O)[O-])c1,-59.9%
19,COc1ccc(C(=O)NC(=S)NCc2cccnc2)cc1OC,-57.3%
20,Cc1ccc(C(=O)N2N=C(c3ccccc3)CC2(O)C(F)(F)F)o1 (stereo not shown),10%
21,CCOc1ccc(N2C(=O)CC(Sc3nccc(C)n3)C2=O)cc1 (stereo not shown),-13.2%
22,CCc1cccc(NS(=O)(=O)c2ccc3c(c2)NC(=O)CO3)c1,14.6%

row,SMILES,"hERG current change (%, negative = inhibition) at 10uM"
1,COC(=O)N/N=C/c1c(C)cc(C)cc1C,4.48%
2,CN1CCC(OC(=O)Cc2ccccc2)CC1.Cl,5.22%
3,Cc1ccc(N2C(=O)C3C4CCC(O4)C3C2=O)c(OC(F)F)c1 (stereo not shown),-6.32%
4,Cc1ccsc1/C=C(\C#N)C(=O)NCc1ccco1,2.81%
5,CC(c1ccon1)N(C)C(=O)CCc1nnc(CCCCc2ccccc2)o1 (stereo not shown),-39.2%
6,CCOC(=O)c1cccc(NC(=O)Nc2ccc(OCC)cc2)c1,-1.43%
7,CCn1cc([N+](=O)[O-])c(C(=O)Nc2nc3ccc(OC)cc3s2)n1,19.6%
8,CC1=CC2=NC(=O)CC(C)(C(=O)N(CC(=O)NC(C)(C)C)C3CCCC3)N2C=C1 (stereo not shown),4.07%
9,c1ccc(-c2nc(-c3cccnc3)n[nH]2)cc1,5.46%
10,O=c1c2cc(Cl)ccc2[nH]c(=S)n1Cc1ccccn1,18.5%
11,COc1ccccc1-c1nnc(C2CCN(S(=O)(=O)c3ccc([N+](=O)[O-])cc3)CC2)o1,-74.6%
12,COc1ccc(N2CCN(C(=O)COC(=O)CCOc3ccc(C(C)(C)C)cc3)CC2)cc1,15.9%
13,C=CCNC(=O)C1CC2Cn3c(nc4cc(C)c(C)cc43)C2N1C (stereo not shown),-7.6%
14,C=CCOc1ccc(C2N3CC4(C)CN2CC(CCC)(C3)C4=O)cc1 (stereo not shown),-16.9%
15,CCCCc1cc(=O)oc2cc(C)cc(OCC(=O)Nc3ccccn3)c12,28.6%
16,CCOc1ccc(Nc2nc3ccccc3c(=O)s2)cc1,19.2%
17,CCCCn1c(CNC(=O)C23CC4CC(CC(C4)C2)C3)nnc1SCC(=O)Nc1nnc(C)s1,-10.4%
18,Cc1cc(C)c2c(n1)SCC(=O)N2CC(=O)Nc1ccc(F)cc1,-7.69%
19,COc1ccc(OCC(O)CNC(=O)c2ccc(OC)cc2)cc1 (stereo not shown),14.9%
20,O=C(Nc1ccc(S(=O)(=O)N2CCCCCC2)cc1)c1[nH]ncc1[N+](=O)[O-],35.4%
21,Cc1cc(NC(=O)COC(=O)CNC(=O)c2cccs2)c([N+](=O)[O-])cc1C,-21.2%
22,Cc1ccc(-c2nn(-c3ccccc3)cc2CNCc2ccccc2)cc1.Cl,7.42%

row,SMILES,"hERG current change (%, negative = inhibition) at 10uM"
1,Cc1ccc(C(=O)NCC(c2ccc(F)cc2)N2CCOCC2)cc1 (stereo not shown),12.7%
2,N#Cc1ccc(OC(=O)C2CCN(C3=NS(=O)(=O)c4ccccc43)CC2)cc1,4.86%
3,Cc1cccc(C(=O)NNC(=S)NC(=O)c2ccccc2)c1,20.2%
4,COc1ccc(CC(=O)NC(C)c2nnc(SCC(=O)Nc3ccccc3)n2C)cc1 (stereo not shown),2.5%
5,COc1cccc(OC)c1C(=O)Nc1cc(C)nn1-c1nc2ccccc2[nH]1,7.24%
6,CCCCCn1c(SCC2CCCO2)nc2cc(C(=O)N3CCC(C(N)=O)CC3)ccc2c1=O (stereo not shown),-64.7%
7,Cc1nc2ccc(NC(=O)c3cc(Cl)ccn3)cc2s1,17.4%
8,O=C(O)CCSSCCC(=O)O,15.4%
9,Cl.OCCN1CCN(c2nc3ccccc3nc2-c2ccccc2)CC1,-10.7%
10,N=C1S/C(=C\c2ccco2)C(=O)N1c1nccs1,11%
11,Cc1ccc(NC(=O)C2(C)Cc3ccccc3C(=O)O2)cc1 (stereo not shown),-5.03%
12,Cc1nc2ccc(OC(=O)c3ccccc3)cc2s1,7.96%
13,c1ccc(-c2[nH]ncc2CN2CCc3ccccc3C2)cc1,-2.39%
14,CC(C#N)Sc1ccc(S(=O)(=O)N2CCCCC2)cn1 (stereo not shown),0.0728%
15,COc1ccc(OCCOc2ccc(/C=C3\C(=N)N4N=C(C)SC4=NC3=O)cc2)cc1,6.54%
16,CCc1nc2c(c(=O)[nH]1)C(CC)(CC)Cc1ccccc1-2,-13.8%
17,CC(=O)C1C(c2ccc(C)cc2)c2c(n[nH]c2C)CC1(C)O (stereo not shown),23.1%
18,CCn1c(CNC(=O)c2cccs2)nnc1SCC(=O)Nc1ccc(Cl)cc1,-57.5%
19,CCOc1ccc(OCC(O)CN2CCN(S(=O)(=O)c3cccc(C(F)(F)F)c3)CC2)cc1.O=C(O)C(=O)O (stereo not shown),13.7%
20,COc1ccc(NC2c3ccccc3C(=O)N2Cc2ccco2)cc1OC (stereo not shown),-17.2%
21,CCOC(=O)c1ccccc1NC(=S)N1CC(C)CC(C)C1 (stereo not shown),-7.45%
22,Cc1cccc(N(C(=O)c2csnn2)C(C(=O)NC2CCCC2)c2ccncc2)c1 (stereo not shown),-23.1%
